Results published in article PMC5892938.
Some of the results follow. At the low end of the ranking the order means little.

Molecular target: GST-SBP-SLBP (stem-loop binding protein) (UniProt Q14493)
Assay: targeted RNA Bind-n-Seq;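 further: DESeq read counts versus GST-SBP nonspecific binding control pulldown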
Conditions: RBNS binding buffer: 25 mM Tris pH 7.5, 150 mM KCl, 3 mM MgCl2, 0.1% Tween, 0.5 mg/mL BSA, 1 mM DTT; 27 nM protein, 750 pM RNA pool; temperature not stated; high values mean tight binding

Sequence | binding signal (log2 fold change)
GGUCACGUCUCAAUCAACUCAGUUCCAGGAGUUUGCUCCUGCUUUUUCAACAGCUCGCAGUCAAG | -0.112
GGUCACGUCUCAAUCAACUCAUCUUCCAGGGAAAGCCCUGGCGUUUUCAACAGCUCGCAGUCAAG | -0.276
GGUCACGUCUCAAUCAACUCUAUCCCAGGAGUUUUCUCCUGUUAACUCAACAGCUCGCAGUCAAG | 0.0384
GGUCACGUCUCAAUCAACUCAACUUCCAGGGAAAUCCCUGGUUUUCUCAACAGCUCGCAGUCAAG | 0.25
GGUCACGUCUCAAUCAACUCAUCCCCCAGGGAAAACCCUGGCAAAUUCAACAGCUCGCAGUCAAG | -0.094
GGUCACGUCUCAAUCAACUCUACUCCCAGGGAAAGCCCUGGUUAUCUCAACAGCUCGCAGUCAAG | -0.226
GGUCACGUCUCAAUCAACUCUAUGUCAGGAGUUUUCUCCUGUUUUCUCAACAGCUCGCAGUCAAG | 0.0161
GGUCACGUCUCAAUCAACUCAUCUUCAGGAGUUUUCUCCUGCAUUCUCAACAGCUCGCAGUCAAG | 0.0362
GGUCACGUCUCAAUCAACUCAUCUCCAGGAGUUUUCUCCUGCUUUCUCAACAGCUCGCAGUCAAG | 0.24
GGUCACGUCUCAAUCAACUCAUUCUCAGGAGUUUACUCCUGCAAUCUCAACAGCUCGCAGUCAAG | 0.261
GGUCACGUCUCAAUCAACUCACUCGAGGGGGGGAAAACCCCUUUACCCUCAUCAUCAACAGCUCGCAGUCAAG | 0.11
GGUCACGUCUCAAUCAACUCUCUAGAGGGGGGGAAAACCCCUUUGCCCUCACAAUCAACAGCUCGCAGUCAAG | -0.293
GGUCACGUCUCAAUCAACUCUUUUCCCAGGGAAAGCCCUGGUUAUCUCAACAGCUCGCAGUCAAG | -0.104
GGUCACGUCUCAAUCAACUCUAUAGAGGGGGGGAAAACCCCUUUGCCCUCAUCAUCAACAGCUCGCAGUCAAG | -0.103
GGUCACGUCUCAAUCAACUCAUUAGAGGGGGGGAAAACCCCUUUACCCUCGUCUUCAACAGCUCGCAGUCAAG | 0.284
GGUCACGUCUCAAUCAACUCAUUAGAGGGGGGGAAAACCCCUUUACCCUCGUUCUCAACAGCUCGCAGUCAAG | -0.263
GGUCACGUCUCAAUCAACUCUUUUCCCAGGGAAAGCCCUGGUAUACUCAACAGCUCGCAGUCAAG | 0.205
GGUCACGUCUCAAUCAACUCUCACGAGGGGGGGAAAACCCCUUUACCCUCUUCAUCAACAGCUCGCAGUCAAG | -0.505
GGUCACGUCUCAAUCAACUCAAUCUCAGGAGUUUACUCCUGCAAUGUCAACAGCUCGCAGUCAAG | 0.00748
GGUCACGUCUCAAUCAACUCUAUUUCAGGAGUUUACUCCUGCAAACUCAACAGCUCGCAGUCAAG | -0.0494
GGUCACGUCUCAAUCAACUCUUCCUCAGGAGUUUACUCCUGUUAAUUCAACAGCUCGCAGUCAAG | -0.243
GGUCACGUCUCAAUCAACUCAUCCCCAGGAGUUUACUCCUGCAUAUUCAACAGCUCGCAGUCAAG | 0.113
GGUCACGUCUCAAUCAACUCAAUCGAGGGGGGGAAAACCCCUUUACCCUCCUAAUCAACAGCUCGCAGUCAAG | -0.24
GGUCACGUCUCAAUCAACUCUAUCCCCAGGGAAAUCCCUGGUAAACUCAACAGCUCGCAGUCAAG | 0.0918

Sequence | binding signal (log2 fold change)
GGUCACGUCUCAAUCAACUCGUUUUCAGGAGUUUCCUCCUGUUUUUUCAACAGCUCGCAGUCAAG | 0.0127
GGUCACGUCUCAAUCAACUCAUGUCCAGGAGUUUUCUCCUGUAAUUUCAACAGCUCGCAGUCAAG | -0.275
GGUCACGUCUCAAUCAACUCUAUCUCAGGAGUUUUCUCCUGCUAUUUCAACAGCUCGCAGUCAAG | 0.038
GGUCACGUCUCAAUCAACUCAAGUCCCAGGGAAACCCCUGGCAAUUUCAACAGCUCGCAGUCAAG | -0.327
GGUCACGUCUCAAUCAACUCAUCCUCAGGAGUUUGCUCCUGCUUUUUCAACAGCUCGCAGUCAAG | -0.0583
GGUCACGUCUCAAUCAACUCUUUUUCCAGGGAAAGCCCUGGCAGUCUCAACAGCUCGCAGUCAAG | 0.0588
GGUCACGUCUCAAUCAACUCCUCAGAGGGGGGGAAAACCCCUUUGCCCUCAAUAUCAACAGCUCGCAGUCAAG | -0.131
GGUCACGUCUCAAUCAACUCAUCGCCCAGGGAAAUCCCUGGUUUUCUCAACAGCUCGCAGUCAAG | -0.0557
GGUCACGUCUCAAUCAACUCAUCCCCAGGAGUUUUCUCCUGUAAUUUCAACAGCUCGCAGUCAAG | -0.142
GGUCACGUCUCAAUCAACUCAUUUUCCAGGGAAACCCCUGGUAUUCUCAACAGCUCGCAGUCAAG | -0.0144
GGUCACGUCUCAAUCAACUCUUCCCCCAGGGAAACCCCUGGCUAUUUCAACAGCUCGCAGUCAAG | 0.251
GGUCACGUCUCAAUCAACUCUUCUCCAGGAGUUUACUCCUGUAAUUUCAACAGCUCGCAGUCAAG | 0.104
GGUCACGUCUCAAUCAACUCUUCUUCCAGGGAAACCCCUGGUAAUGUCAACAGCUCGCAGUCAAG | 0.176
GGUCACGUCUCAAUCAACUCUACUCCAGGAGUUUACUCCUGCUAUCUCAACAGCUCGCAGUCAAG | 0.154
GGUCACGUCUCAAUCAACUCAUUUUCAGGAGUUUCCUCCUGUAAUCUCAACAGCUCGCAGUCAAG | 0.0778
GGUCACGUCUCAAUCAACUCAAUCUCAGGAGUUUUCUCCUGCAUGUUCAACAGCUCGCAGUCAAG | 0.127
GGUCACGUCUCAAUCAACUCUAUCCCCAGGGAAAACCCUGGUAUUUUCAACAGCUCGCAGUCAAG | 0.0351
GGUCACGUCUCAAUCAACUCAUCGCCCAGGGAAACCCCUGGUUUUUUCAACAGCUCGCAGUCAAG | -0.133
GGUCACGUCUCAAUCAACUCAUCUCCCAGGGAAAGCCCUGGUUAUCUCAACAGCUCGCAGUCAAG | -0.0135
GGUCACGUCUCAAUCAACUCUAUCCCCAGGGAAAACCCUGGUUAAUUCAACAGCUCGCAGUCAAG | 0.161
GGUCACGUCUCAAUCAACUCUAUCUCCAGGGAAAUCCCUGGUUUUCUCAACAGCUCGCAGUCAAG | -0.0211
GGUCACGUCUCAAUCAACUCAUCUUCCAGGGAAACCCCUGGUAUAUUCAACAGCUCGCAGUCAAG | 0.0311
GGUCACGUCUCAAUCAACUCUAUAGAGGGGGGGAAAACCCCUUUGCCCUCAACUUCAACAGCUCGCAGUCAAG | -0.405
